Experimental data: PubChem BioAssay AID624417 (National Center for Advancing Translational Sciences (NCATS), 2012)
Hit rate of the full screen: of about 410,000 compounds, about 6,400 (1.6%) were called active. Inconclusive means that the source gave no clear call. Such entries were picked first, then a sample of the others. Calls follow the shape of the dose curve; as a rule, active = well fitted inhibition curve with a large enough effect; inconclusive = small, poorly fitted or top-dose-only effect; inactive = no such curve, though single readings can be large or run the other way. No potency is given beside an inconclusive call; the fits are too rough.

Molecular target: Glucagon-like peptide 1 receptor (Homo sapiens) (UniProt P43220)
Experiment: qHTS of GLP-1 Receptor Inverse Agonists (Inhibition Mode); also: nearly all actives have a fitted effect of over 55% in size
Details: HEK293 GLP-1R CRE-luciferase, luminescence, 24 h, GLP-1R form is constitutively active; series mostly up to 38.3 µM
Summary of the method: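 HEK293 cells stably co-expressing a cAMP-responsive luciferase reporter and constitutively active GLP-1R were seeded, incubated 12 h, then exposed to compounds for 24 h at 37 C. Luminescence was read 12 min after detection reagent; inverse agonists lower signal.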
Potency is read from the fitted curve at half-maximal effect; tags tell the direction and shape of the fitted curve.

Sequence of UniProt P43220 (P43220 whole entry, looked up): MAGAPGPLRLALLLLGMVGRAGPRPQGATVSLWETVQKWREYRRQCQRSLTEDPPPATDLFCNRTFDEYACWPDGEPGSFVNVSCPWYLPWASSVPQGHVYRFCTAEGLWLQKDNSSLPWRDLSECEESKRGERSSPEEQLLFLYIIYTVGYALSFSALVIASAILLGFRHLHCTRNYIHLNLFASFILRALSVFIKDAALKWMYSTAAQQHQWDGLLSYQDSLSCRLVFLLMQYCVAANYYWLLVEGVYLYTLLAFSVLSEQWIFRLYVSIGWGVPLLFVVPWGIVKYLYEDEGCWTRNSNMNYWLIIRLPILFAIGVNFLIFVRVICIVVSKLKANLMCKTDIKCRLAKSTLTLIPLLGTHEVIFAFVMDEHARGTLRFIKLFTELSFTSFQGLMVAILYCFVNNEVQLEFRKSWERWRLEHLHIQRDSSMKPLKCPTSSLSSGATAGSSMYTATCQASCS

Structure (SMILES) | Potency
Cc1ccc(CSCCNS(=O)(=O)c2ccc(C)cc2)cc1 | inconclusive [inhibitor, single point]
CN1C(=O)c2ccccc2Sc2ccc(NC(=O)COc3ccc(Cl)cc3)cc21 | inconclusive [inhibitor, partial curve, poor fit]
O=C1CN(c2ccccc2)C(=S)N1C(=O)c1ccccc1 | inactive
Cc1ccc(S(=O)(=O)Nc2cccc(-c3cn4ccsc4n3)c2)cc1 | inactive
O=C(Nc1cc(Cl)ccc1N1CCCCC1)c1cccs1 | inactive
Cn1c(-n2cccc2)c(-c2c(-c3ccc(F)cc3)[nH]c3c2c(=O)[nH]c(=O)n3C)c(=O)[nH]c1=O | inactive
O=C1c2ccccc2NC(c2ccc(O)cc2)N1c1ccccc1 (stereo not given) | inconclusive [inhibitor, partial curve, poor fit]
CC(C)Sc1nc2c(c(=O)n1-c1ccc(F)cc1)SCC2 | inconclusive [inhibitor, single point]
COc1cc(OC)c(NC(=O)c2ccc3c(Cl)c4c(nc3c2)CCCC4)cc1Cl | inactive
O=C(Nc1cccc(C(F)(F)F)c1)C(SCCO)c1ccccc1 (stereo not given) | inconclusive [inhibitor, single point]
O=C(CSC1CN(C(c2ccccc2)c2ccccc2)C1)N/N=C/c1ccc(Cl)cc1Cl | inconclusive [inhibitor, single point]
COc1ccccc1C(C(=O)c1ccccc1)c1ccc(O)cc1 (stereo not given) | inconclusive [inhibitor, partial curve, poor fit]
Cc1ccc(-c2noc(CSc3nnnn3-c3ccccc3)n2)cc1 | inconclusive [inhibitor, single point]
Clc1ccc2[nH]c3c(c2c1)CCc1cn[nH]c1-3 | inconclusive [inhibitor, partial curve, poor fit]
CCS(=O)(=O)Nc1ccc(C2=NN(C(=O)c3ccco3)C(c3ccc(C)cc3)C2)cc1 (stereo not given) | inconclusive [inhibitor, single point]
Cc1cccc(CN2C(=O)/C(=C\c3ccc(C(=O)NCCN4CCOCC4)cc3)Sc3ccccc32)c1 | inconclusive [inhibitor, single point]
Nc1nc(N)c(N=Nc2ccccc2)c(=O)[nH]1 | inactive
CCN1C(=O)[C@H]2[C@@H](c3ccc(-c4cccc(Cl)c4)c(OC)c3)N[C@@](Cc3ccccc3)(C(=O)OC)[C@H]2C1=O | inconclusive [inhibitor, partial curve, poor fit]
CCN(Cc1cccc(F)c1)C(=O)c1ccc2ccccc2n1 | inconclusive [inhibitor, single point]
CCCN(CC(=O)Nc1ccccc1C)C(=O)c1ccc2ccccc2n1 | inactive

Structure (SMILES) | Potency
COc1ccc(N(CC(=O)N2CCN(c3cccc(OC)c3)CC2)S(=O)(=O)c2c(C)noc2C)cc1 | inconclusive [inhibitor, partial curve, poor fit]
O=C(Nc1ccc(N2CCOCC2)c(S(=O)(=O)Nc2ccccc2Cl)c1)c1ccccc1 | inconclusive [inhibitor, single point]
COCc1c(C(=O)N2CCN(Cc3ccc4c(c3)OCO4)CC2)oc2ccccc12 | inconclusive [inhibitor, partial curve, poor fit]
CCOC(=O)C1=C(CS(=O)(=O)c2ccc(C)c(C)c2)NC(=O)NC1c1ccccc1OCC (stereo not given) | inactive
CC(C)c1cc(C(=O)N/N=C/c2ccoc2)c(O)c(C(C)C)c1 | inconclusive [inhibitor, single point]
Cc1nnn(-c2nonc2N)c1C(=O)N/N=C/c1cccc2ccccc12 | inactive
O=C(COc1ccc(Cl)cc1[N+](=O)[O-])N1CCCCC1 | inconclusive [inhibitor, single point]
CCCC(=O)c1ccc(OCc2cn(CC(=O)c3ccc(O)cc3)nn2)cc1 | inconclusive [inhibitor, partial curve]
CCOC(=O)c1[nH]c(C)c(C(=O)N2CCc3ccccc32)c1C | inconclusive [inhibitor, full curve, poor fit]
Cc1ccc(C(=O)NC(=S)Nc2ccccc2C(F)(F)F)cc1C | inconclusive [inhibitor, single point]
CC(C)Cc1ccc(C(C)CC2=CCC(CN(C)C)C2=O)cc1 (stereo not given) | inconclusive [inhibitor, partial curve, poor fit]
O=C(Nc1ccc(F)c(Cl)c1)C1CCCN1S(=O)(=O)c1ccc(F)cc1 (stereo not given) | inconclusive [inhibitor, single point]
COc1ccc(-c2c(C)nn3c(NC4CCCC4)cc(C)nc23)cc1OC | inconclusive [inhibitor, partial curve]
O=C(NCCCCCCNC(=O)OCc1ccccc1)OCc1ccccc1 | inactive
CCN(CC)CCN(C(=O)c1c(F)cccc1F)c1nc2cc(C)cc(C)c2s1 | inconclusive [inhibitor, partial curve, poor fit]
C[C@@H]1CCCCO[C@@H](CN(C)Cc2ccc(C(F)(F)F)cc2)[C@@H](C)CN([C@H](C)CO)C(=O)c2cc(N(C)C)ccc2O1 | inconclusive [inhibitor, single point]
CC1=C/C(=N\N=C2\NC(=O)C(CC(=O)Nc3ccccc3)S2)CC(C)(C)C1 (stereo not given) | inconclusive [inhibitor, single point]
OC1(CNCc2ccccc2)C2CC3CC(C2)CC1C3 (stereo not given) | inconclusive [inhibitor, partial curve, poor fit]
Cc1cc2oc(C(=O)Nc3c(C)n(C)n(-c4ccccc4)c3=O)c(C)c2cc1Cl | inconclusive [inhibitor, partial curve, poor fit]
Cc1ccc(Nc2ccc(NCc3ccccc3)nn2)cc1C | inconclusive [inhibitor, partial curve, poor fit]
